Test results taken from publication PMC7794930.
Where two headings read alike, the source gives them in different places. No constants are given. Whether binding was seen depends on the method and setting. In cells and extracts the contact can be indirect. Some entries that bind do so weakly or less than the wild type. For some of these results: Sequences can lack the tags named with a protein.

Sequences of proteins named here, by UniProt entry; tags and fusion partners are left off.
UniProt P11075: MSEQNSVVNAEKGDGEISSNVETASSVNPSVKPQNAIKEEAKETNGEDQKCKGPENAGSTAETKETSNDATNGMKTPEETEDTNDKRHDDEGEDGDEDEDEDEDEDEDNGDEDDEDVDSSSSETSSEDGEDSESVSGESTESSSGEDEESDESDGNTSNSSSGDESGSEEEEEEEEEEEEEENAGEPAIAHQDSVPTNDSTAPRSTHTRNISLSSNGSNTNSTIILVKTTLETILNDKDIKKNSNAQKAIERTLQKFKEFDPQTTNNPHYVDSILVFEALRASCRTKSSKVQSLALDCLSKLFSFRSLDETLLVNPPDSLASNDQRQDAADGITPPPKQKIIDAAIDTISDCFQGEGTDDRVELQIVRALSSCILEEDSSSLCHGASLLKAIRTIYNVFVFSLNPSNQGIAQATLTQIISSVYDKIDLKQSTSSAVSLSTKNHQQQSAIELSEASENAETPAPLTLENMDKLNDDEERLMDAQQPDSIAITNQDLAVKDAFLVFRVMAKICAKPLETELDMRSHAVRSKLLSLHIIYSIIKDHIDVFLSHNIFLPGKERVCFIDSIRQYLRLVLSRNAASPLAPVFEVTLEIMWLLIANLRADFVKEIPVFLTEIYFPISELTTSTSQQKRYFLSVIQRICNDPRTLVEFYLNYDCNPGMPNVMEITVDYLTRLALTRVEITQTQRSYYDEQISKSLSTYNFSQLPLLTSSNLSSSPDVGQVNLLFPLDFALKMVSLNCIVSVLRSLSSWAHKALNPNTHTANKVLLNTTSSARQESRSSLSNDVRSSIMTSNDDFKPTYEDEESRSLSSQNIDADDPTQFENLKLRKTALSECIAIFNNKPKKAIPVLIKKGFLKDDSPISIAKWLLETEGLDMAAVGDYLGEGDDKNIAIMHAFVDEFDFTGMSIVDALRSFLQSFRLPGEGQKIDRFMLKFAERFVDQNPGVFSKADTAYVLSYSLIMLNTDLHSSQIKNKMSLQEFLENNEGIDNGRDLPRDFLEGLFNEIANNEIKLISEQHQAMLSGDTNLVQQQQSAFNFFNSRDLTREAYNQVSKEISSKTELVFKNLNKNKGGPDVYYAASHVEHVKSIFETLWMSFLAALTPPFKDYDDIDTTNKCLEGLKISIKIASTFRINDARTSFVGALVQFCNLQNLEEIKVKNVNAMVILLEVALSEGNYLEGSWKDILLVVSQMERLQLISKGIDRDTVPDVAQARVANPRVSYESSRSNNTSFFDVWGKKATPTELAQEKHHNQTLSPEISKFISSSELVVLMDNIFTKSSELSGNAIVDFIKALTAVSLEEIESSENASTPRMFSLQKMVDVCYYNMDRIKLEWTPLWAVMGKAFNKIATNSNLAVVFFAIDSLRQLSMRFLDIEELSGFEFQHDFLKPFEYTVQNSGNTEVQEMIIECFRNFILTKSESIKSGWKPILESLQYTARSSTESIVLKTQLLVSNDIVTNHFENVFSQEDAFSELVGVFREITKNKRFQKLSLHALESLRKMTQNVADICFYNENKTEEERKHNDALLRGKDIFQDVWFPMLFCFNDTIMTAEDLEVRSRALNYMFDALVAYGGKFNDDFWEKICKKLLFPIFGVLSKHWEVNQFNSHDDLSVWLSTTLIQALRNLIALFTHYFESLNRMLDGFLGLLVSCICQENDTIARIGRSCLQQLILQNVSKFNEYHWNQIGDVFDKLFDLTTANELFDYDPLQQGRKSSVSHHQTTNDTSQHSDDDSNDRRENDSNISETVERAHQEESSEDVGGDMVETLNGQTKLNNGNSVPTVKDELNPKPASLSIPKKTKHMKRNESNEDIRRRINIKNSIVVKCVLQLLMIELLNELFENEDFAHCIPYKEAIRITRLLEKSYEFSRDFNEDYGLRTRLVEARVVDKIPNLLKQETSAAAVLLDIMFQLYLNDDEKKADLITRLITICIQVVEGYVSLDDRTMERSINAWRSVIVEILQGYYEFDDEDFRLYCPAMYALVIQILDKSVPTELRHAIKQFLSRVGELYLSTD

T1: Emp24-CFP (p24 complex subunit) (S. cerevisiae) (UniProt P32803)
T1 sequence: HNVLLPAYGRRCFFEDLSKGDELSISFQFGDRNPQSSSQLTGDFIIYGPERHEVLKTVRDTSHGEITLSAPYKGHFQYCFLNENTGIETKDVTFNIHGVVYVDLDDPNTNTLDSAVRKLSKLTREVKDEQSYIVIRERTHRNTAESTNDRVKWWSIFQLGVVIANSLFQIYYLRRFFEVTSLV

T2: Erv25 cytoplasmic tail peptide (…) (S. cerevisiae)
T2 sequence (peptide, N-terminal cysteine linked to thiopropyl-Sepharose 6B): CKNYFKTKHII

T3: Arf1-GFP (S. cerevisiae) (UniProt P11076)
T3 sequence: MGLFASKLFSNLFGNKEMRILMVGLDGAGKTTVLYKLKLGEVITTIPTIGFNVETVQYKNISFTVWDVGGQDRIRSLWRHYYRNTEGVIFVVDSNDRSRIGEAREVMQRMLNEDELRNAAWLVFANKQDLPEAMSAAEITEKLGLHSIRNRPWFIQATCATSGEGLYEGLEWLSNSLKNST


Experiments:
[1] = target: T1, Emp24-CFP (p24 complex subunit) (S. cerevisiae); assay: co-IP; native co-IP of GFP- or CFP-tagged bait with GFP-Trap_A (3 h, 4 °C) from S13 enriched-Golgi fraction solubilized with 1% Triton X-100 in HEPES buffer (20 mM HEPES pH 7.2, 100 mM KCl, 5 mM MgCl2); immunoblot; wild-type, emp24Δ, or erg6Δ cells with or without 100 µg/mL BFA
[2] = target: T2, Erv25 cytoplasmic tail peptide (…) (S. cerevisiae); assay: pull-down; synthetic tail peptides coupled by an N-terminal cysteine to thiopropyl-Sepharose 6B beads, incubated with cytosol of a wild-type strain expressing HA-Gea1; bound material by SDS-PAGE and immunoblot; only the target purified
Arf1-GFP (S. cerevisiae) = target: T3, Arf1-GFP (S. cerevisiae); assay: co-IP; native co-IP of GFP- or CFP-tagged bait with GFP-Trap_A (3 h, 4 °C) from S13 enriched-Golgi fraction solubilized with 1% Triton X-100 in HEPES buffer (20 mM HEPES pH 7.2, 100 mM KCl, 5 mM MgCl2); immunoblot; wild-type, emp24Δ, or erg6Δ cells with or without 100 µg/mL BFA
[3] = target: T1, Emp24-CFP (p24 complex subunit) (S. cerevisiae); assay: as above; remark: listed apart in the source

Row | binding [1] | binding [2] | binding (Arf1-GFP (S. cerevisiae)) | binding [3] | Molecule
1 | no binding |  |  |  | Sec7-dsRed (from UniProt P11075 1-2009)
2 |  | binds | binds | binds | Cop1 (yeast α-COP), COPI coat subunit (protein, UniProt P53622 1-1201) MKMLTKFESKSTRAKGIAFHPSRPWVLVALFSSTIQLWDYRMGTLLHRFEDHEGPVRGLDFHPTQPIFVSAGDDYTIKVWSLDTNKCLYTLTGHLDYVRTVFFHRELPWIISASDDQTIRIWNWQNRKEIACLTGHNHFVMCAQFHPTDDLIVSASLDETIRIWDISGLRKRHSAPGTSSFEEQMSAQQNLLDGSLGDCVVKFILEGHTRGVNWASFHPTLPLIVSGSDDRQVKLWRMSATKAWEVDTCRGHTNNVDSVIFHPHQNLIISVGEDKTLRVWDLDKRTPVKQFKRENDRFWLIAAHPHINLFGAAHDSGIMVFKLDRERPCSFIHQNQLFFVNAEKQIQSFNFQKRVASLPYASLKGIGQPWDAFRSISYNPSQHSVLVNEANGKFALVILPKQPVGAVEPTSVTQDTGNFATFVGRNRFVVYNKNTESVEVRSLENKVTRNIKVEETVRTIVAAGPGSVLVIHPREVILYDVQQGKKVSQLAVKNVKYVSWSLDGQYVALMSKHTITLATKKLELINSMHETIRIKSAAWDETGVLIYSTLNHIRYSLLNGDRGIIKTLEKTLYITKVQGKLVYCLNREGEIEILTIDPTEYRFKKALVNKNFPEVLRLIKDSNLVGQNIISYLQKSGYPEIALQFVQDPHIRFDLALEYGNLDVALDEAKKLNDSSTWERLIQEALAQGNASLAEMIYQTQHSFDKLSFLYLVTGDVNKLSKMQNIAQTREDFGSMLLNTFYNNSTKERSSIFAEGGSLPLAYAVAKANGDEAAASAFLEQAEVDEQDVTLPDQMDASNFVQRPVISKPLEKWPLKEAELSYFEKAVLGQIDDLTIDDETPAVNTTQEQEEPLGEENFNDEDIGEDEGAWDLGDEDLDVGEELPEEVEQGEITSPAQEVETAIWIKNSKLPAVLVAAGAFDAAVQALSKQVGVVKLEPLKKYFTNIYEGCRTYIPSTPCELPAQLGYVRAYDDTVSEDQILPYVPGLDVVNEKMNEGYKNFKLNKPDIAIECFREAIYRITLLMVDDAEDEKLAHKILETAREYILGLSIELERRSLKEGNTVRMLELAAYFTKAKLSPIHRTNALQVAMSQHFKHKNFLQASYFAGEFLKIISSGPRAEQARKIKNKADSMASDAIPIDFDPYAKFDICAATYKPIYEDTPSVSDPLTGSKYVITEKDKIDRIAMISKIGAPASGLRIRV
